{"sequences": {"note": "By UniProt entry, the sequences of proteins in these tests, tags left out. Where a name states a change or a piece, a line headed by the entry shows the natural chain unless it says otherwise.", "UniProt P22579": "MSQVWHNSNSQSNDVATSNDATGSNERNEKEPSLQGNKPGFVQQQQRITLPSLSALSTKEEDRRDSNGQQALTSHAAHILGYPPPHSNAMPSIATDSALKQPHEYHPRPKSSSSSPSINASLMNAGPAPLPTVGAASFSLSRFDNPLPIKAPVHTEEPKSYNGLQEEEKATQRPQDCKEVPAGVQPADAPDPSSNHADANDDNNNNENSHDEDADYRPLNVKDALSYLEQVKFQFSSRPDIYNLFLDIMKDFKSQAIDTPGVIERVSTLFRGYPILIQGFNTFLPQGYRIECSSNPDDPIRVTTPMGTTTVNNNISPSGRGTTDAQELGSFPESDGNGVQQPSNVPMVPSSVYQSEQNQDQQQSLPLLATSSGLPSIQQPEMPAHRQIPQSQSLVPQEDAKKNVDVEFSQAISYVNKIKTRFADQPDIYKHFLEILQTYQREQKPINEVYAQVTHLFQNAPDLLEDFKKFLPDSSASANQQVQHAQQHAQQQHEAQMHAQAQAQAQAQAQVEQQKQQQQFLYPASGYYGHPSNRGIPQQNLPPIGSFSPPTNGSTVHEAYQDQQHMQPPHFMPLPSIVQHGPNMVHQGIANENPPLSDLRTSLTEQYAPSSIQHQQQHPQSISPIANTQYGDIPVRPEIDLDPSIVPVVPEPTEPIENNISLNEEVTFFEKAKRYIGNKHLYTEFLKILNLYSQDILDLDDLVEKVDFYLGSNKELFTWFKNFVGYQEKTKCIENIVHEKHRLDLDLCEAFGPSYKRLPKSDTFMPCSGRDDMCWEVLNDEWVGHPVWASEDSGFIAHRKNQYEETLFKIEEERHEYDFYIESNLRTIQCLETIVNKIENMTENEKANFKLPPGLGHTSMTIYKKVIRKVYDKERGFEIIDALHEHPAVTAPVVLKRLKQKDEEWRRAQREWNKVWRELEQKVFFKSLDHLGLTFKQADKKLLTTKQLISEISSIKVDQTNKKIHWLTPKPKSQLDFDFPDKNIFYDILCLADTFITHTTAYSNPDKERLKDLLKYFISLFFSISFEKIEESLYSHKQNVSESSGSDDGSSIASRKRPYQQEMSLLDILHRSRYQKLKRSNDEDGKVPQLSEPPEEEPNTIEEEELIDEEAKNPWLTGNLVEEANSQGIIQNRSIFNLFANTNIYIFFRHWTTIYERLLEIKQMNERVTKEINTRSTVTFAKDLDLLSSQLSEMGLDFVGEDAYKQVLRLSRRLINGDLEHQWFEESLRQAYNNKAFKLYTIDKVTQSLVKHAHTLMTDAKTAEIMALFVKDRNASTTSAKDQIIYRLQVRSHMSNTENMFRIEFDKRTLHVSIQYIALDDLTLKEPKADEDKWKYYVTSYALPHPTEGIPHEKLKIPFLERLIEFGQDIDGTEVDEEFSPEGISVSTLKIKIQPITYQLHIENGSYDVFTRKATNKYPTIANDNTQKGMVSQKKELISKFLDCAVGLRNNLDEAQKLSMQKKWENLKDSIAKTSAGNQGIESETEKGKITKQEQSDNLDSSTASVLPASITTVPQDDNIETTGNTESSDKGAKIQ"}, "source": "paper PMC10163088", "molecules": {"B1": {"name": "HA3-Cyc8 (aa 1-398 with 10 TPR motifs; pFK77) (domain or fragment, UniProt P14922 1-398)", "chain": "MNPGGEQTIMEQPAQQQQQQQQQQQQQQQQAAVPQQPLDPLTQSTAETWLSIASLAETLGDGDRAAMAYDATLQFNPSSAKALTSLAHLYRSRDMFQRAAELYERALLVNPELSDVWATLGHCYLMLDDLQRAYNAYQQALYHLSNPNVPKLWHGIGILYDRYGSLDYAEEAFAKVLELDPHFEKANEIYFRLGIIYKHQGKWSQALECFRYILPQPPAPLQEWDIWFQLGSVLESMGEWQGAKEAYEHVLAQNQHHAKVLQQLGCLYGMSNVQFYDPQKALDYLLKSLEADPSDATTWYHLGRVHMIRTDYTAAYDAFQQAVNRDSRNPIFWCSIGVLYYQISQYRDALDAYTRAIRLNPYISEVWYDLGTLYETCNNQLSDALDAYKQAARLDVNN"}}, "key": {"[1]": {"biological_target": "T1, GST-Whi5 (full-length) (S. cerevisiae) (UniProt Q12416)", "T1 sequence": "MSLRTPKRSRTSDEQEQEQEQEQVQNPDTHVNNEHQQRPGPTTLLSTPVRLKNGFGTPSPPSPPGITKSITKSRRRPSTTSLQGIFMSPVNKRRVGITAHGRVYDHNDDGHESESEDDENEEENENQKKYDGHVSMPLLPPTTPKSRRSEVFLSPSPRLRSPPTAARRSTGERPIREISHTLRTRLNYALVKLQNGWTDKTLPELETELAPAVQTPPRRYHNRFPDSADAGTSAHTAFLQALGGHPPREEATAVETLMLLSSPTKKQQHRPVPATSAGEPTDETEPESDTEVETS", "assay": "pull-down; GST fusions of repressors (full-length or length variants) immobilised on GSH sepharose, incubated with bacterial total protein extracts containing HA-tagged Sin3, Cyc8 or Tup1 (or Tup1 length variants); elution with free GSH, anti-HA blot (Figs. 1, 3, 4, 5); only the target purified"}, "[2]": {"biological_target": "T2, GST-Yhp1 (full-length) (S. cerevisiae) (UniProt Q04116)", "T2 sequence": "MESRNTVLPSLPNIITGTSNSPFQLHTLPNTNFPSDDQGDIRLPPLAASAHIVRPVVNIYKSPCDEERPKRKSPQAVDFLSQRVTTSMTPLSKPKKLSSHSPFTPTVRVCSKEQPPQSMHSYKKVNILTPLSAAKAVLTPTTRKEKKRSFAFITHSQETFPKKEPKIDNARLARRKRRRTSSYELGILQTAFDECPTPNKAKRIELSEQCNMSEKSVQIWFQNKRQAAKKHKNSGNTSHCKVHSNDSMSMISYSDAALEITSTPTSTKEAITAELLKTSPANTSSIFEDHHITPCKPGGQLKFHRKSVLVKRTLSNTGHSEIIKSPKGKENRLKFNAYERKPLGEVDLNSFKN", "assay": "pull-down; GST fusions of repressors (full-length or length variants) immobilised on GSH sepharose, incubated with bacterial total protein extracts containing HA-tagged Sin3, Cyc8 or Tup1 (or Tup1 length variants); elution with free GSH, anti-HA blot (Figs. 1, 3, 4, 5); only the target purified"}, "[3]": {"biological_target": "T3, GST-Rdr1 (full-length) (S. cerevisiae) (UniProt Q08904)", "T3 sequence": "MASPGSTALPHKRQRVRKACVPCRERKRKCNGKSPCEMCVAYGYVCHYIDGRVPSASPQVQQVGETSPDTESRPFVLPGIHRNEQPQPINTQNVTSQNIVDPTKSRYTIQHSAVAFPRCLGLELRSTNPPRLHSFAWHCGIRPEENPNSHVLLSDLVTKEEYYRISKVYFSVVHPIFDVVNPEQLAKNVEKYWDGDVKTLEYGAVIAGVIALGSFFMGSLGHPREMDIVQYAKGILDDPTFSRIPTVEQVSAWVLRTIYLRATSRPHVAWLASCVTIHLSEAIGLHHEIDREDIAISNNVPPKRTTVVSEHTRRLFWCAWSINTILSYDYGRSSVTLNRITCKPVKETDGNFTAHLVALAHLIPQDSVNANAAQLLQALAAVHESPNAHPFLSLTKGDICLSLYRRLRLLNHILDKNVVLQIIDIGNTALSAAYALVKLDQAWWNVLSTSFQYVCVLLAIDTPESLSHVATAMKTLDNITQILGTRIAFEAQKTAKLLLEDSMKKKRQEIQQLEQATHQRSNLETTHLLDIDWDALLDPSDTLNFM", "assay": "pull-down; GST fusions of repressors (full-length or length variants) immobilised on GSH sepharose, incubated with bacterial total protein extracts containing HA-tagged Sin3, Cyc8 or Tup1 (or Tup1 length variants); elution with free GSH, anti-HA blot (Figs. 1, 3, 4, 5); only the target purified"}, "[4]": {"biological_target": "T4, GST-Mot3 (full-length) (S. cerevisiae) (UniProt P54785)", "T4 sequence": "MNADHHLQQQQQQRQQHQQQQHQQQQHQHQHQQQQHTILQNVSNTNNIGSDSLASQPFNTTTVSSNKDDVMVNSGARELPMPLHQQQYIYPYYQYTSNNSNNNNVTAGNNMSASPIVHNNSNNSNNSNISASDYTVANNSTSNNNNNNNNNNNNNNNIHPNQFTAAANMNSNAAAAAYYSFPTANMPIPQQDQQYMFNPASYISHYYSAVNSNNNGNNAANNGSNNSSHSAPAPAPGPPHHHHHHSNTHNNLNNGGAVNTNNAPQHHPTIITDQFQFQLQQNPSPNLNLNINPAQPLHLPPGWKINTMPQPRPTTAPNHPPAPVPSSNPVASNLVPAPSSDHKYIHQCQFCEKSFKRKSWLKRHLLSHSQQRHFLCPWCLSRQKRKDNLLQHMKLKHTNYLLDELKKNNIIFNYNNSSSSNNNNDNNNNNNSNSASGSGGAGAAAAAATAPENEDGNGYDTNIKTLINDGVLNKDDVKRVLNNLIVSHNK", "assay": "pull-down; GST fusions of full-length repressors immobilised on GSH sepharose, incubated with protein extracts from yeast transformants containing epitope-tagged Sin3 length variants; anti-HA blot (Fig. 2); only the target purified"}, "[5]": {"biological_target": "T5, GST-Sko1 (full-length) (S. cerevisiae) (UniProt Q02100)", "T5 sequence": "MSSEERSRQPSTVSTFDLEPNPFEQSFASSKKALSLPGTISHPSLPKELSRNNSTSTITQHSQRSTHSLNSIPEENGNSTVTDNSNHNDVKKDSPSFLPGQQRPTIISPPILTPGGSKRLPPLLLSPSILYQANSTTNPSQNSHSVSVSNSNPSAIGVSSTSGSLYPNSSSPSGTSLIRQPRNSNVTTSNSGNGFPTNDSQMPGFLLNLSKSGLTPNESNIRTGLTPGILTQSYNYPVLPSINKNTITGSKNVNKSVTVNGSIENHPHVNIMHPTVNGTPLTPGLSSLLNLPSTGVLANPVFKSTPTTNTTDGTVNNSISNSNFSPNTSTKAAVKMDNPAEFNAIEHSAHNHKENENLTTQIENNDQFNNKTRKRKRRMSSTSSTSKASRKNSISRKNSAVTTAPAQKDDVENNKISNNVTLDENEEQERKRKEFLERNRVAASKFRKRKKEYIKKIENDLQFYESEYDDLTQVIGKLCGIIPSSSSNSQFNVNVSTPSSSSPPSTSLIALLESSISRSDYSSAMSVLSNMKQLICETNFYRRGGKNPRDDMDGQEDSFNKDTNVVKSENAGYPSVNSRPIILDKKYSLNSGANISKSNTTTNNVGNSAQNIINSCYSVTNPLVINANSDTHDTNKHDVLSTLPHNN", "assay": "pull-down; GST fusions of repressors (full-length or length variants) immobilised on GSH sepharose, incubated with bacterial total protein extracts containing HA-tagged Sin3, Cyc8 or Tup1 (or Tup1 length variants); elution with free GSH, anti-HA blot (Figs. 1, 3, 4, 5); only the target purified"}}, "note": "These are yes or no findings as the source states them, for the method shown. Binding seen in cells or lysates may run through a third protein. Some binding calls cover weakened binding; strength is not graded here. Where a sequence is shown, tags or fusion partners need not be part of it.", "data": [{"molecule": "HA3-Sin3 (full-length, aa 1-1536; pSW11) (from UniProt P22579 1-1536)", "values": [{"measurement": "binding", "setting": "[1]", "result": "binds"}, {"measurement": "binding", "setting": "[2]", "result": "binds"}, {"measurement": "binding", "setting": "[3]", "result": "binds"}]}, {"molecule": "epitope-tagged Sin3 length variant 301-600 (PAH2; pYJ91) (from UniProt P22579 301-600) (domain or fragment)", "values": [{"measurement": "binding", "setting": "[4]", "result": "binds"}]}, {"molecule": "B1", "values": [{"measurement": "binding", "setting": "[5]", "result": "binds"}]}]}
